Test results taken from the supplement of paper PMC9446081.
Among all 39,000 compounds or so, about 220 (0.56%) showed activity. The list shows a part of the results.

These molecules were tested on Escherichia coli K-12 BW25113 (assay: relative growth (OD600 normalised to plate interquartile mean) (fraction); higher = less growth inhibition, active = 0.2 or less). Conditions: 50 µM; LB; incubation time: overnight (16-24 h).
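Further: static incubation at 37 °C against the wild-type strain, values averaged over two biological replicates.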

SMILES	relative growth
C[C@H]1CN([C@@H](C)CO)C(=O)c2cc(NS(=O)(=O)c3cn(C)cn3)ccc2O[C@@H]1CN(C)Cc1ccc(C(=O)Nc2ccccc2N)cc1	inactive: 0.988
Cc1noc(C)c1NC(=O)N(C)C[C@@H]1OCCCC[C@H](C)Oc2ccc(NS(=O)(=O)c3ccccc3)cc2C(=O)N([C@@H](C)CO)C[C@@H]1C	inactive: 1.04
COC(=O)C12CC3(C(=O)OC)CC(C(=O)OC)(CC(C(=O)OC)(C1)C3=O)C2=O	inactive: 1.02
COc1cccc(S(=O)(=O)N(C)C[C@@H]2OCc3cnnn3CCCC(=O)N([C@H](C)CO)C[C@H]2C)c1	inactive: 1.01
CSC[C@H]1O[C@H](n2ccc3c(N)ncnc32)[C@@H](O)[C@H]1O	inactive: 1
C[C@@H]1CN([C@@H](C)CO)C(=O)c2cc(NC(=O)Cc3ccccc3)ccc2O[C@@H](C)CCCCO[C@H]1CN(C)C(=O)Cc1ccccc1	inactive: 1.01
Cc1noc(C)c1NC(=O)Nc1ccc2c(c1)C(=O)N([C@H](C)CO)C[C@H](C)[C@@H](CN(C)Cc1ccccc1)OCCCC[C@@H](C)O2	inactive: 0.991
COc1ccc(CN(C)C[C@@H]2OCCCC[C@H](C)Oc3ccc(NC(=O)NC4CCCCC4)cc3C(=O)N([C@H](C)CO)C[C@H]2C)cc1	inactive: 0.98
NC(=O)NCCCC(=O)O	inactive: 0.997
CN(C)C(=O)C[C@H]1CC[C@H](NC(=O)C2CCOCC2)[C@H](CO)O1	inactive: 0.989
CCN(CC)CCNC(=O)c1cc(Br)c(N)cc1OC	inactive: 1.1
Cn1sc(=O)n(Cc2ccccc2)c1=O	inactive: 0.945
C[C@@H]1CN([C@H](C)CO)C(=O)c2cccc(NC(=O)c3ccncc3)c2O[C@H]1CN(C)Cc1ccc(Oc2ccccc2)cc1	inactive: 1.01
CCCNC(=O)[C@@]1(C)c2ccccc2C(=O)N(Cc2ccc(OC(F)(F)F)cc2)[C@H]1c1ccc(CO)cc1	inactive: 0.956
C[C@@H]1CN([C@@H](C)CO)C(=O)c2cc(NC(=O)C3CCCCC3)ccc2O[C@@H](C)CCCCO[C@H]1CN(C)CC1CCCCC1	inactive: 0.982
COc1ccc(S(=O)(=O)N[C@H]2C=C[C@H](CC(=O)N3CCC(Cc4ccccc4)CC3)O[C@@H]2CO)cc1	inactive: 0.883
C[C@@H]1CN([C@H](C)CO)C(=O)Cc2cc(NC(=O)C3CC3)ccc2O[C@H]1CN(C)C(=O)Nc1ccc2c(c1)OCO2	inactive: 1.03
CC(=O)N1CCO[C@H]2CCN(C(=O)c3cn(C)cn3)C[C@H]21	inactive: 1.02
C[C@@H]1CN([C@H](C)CO)C(=O)c2cc(NS(=O)(=O)c3ccc(F)cc3)ccc2O[C@@H](C)CCCCO[C@@H]1CN(C)S(C)(=O)=O	inactive: 1.01

SMILES	relative growth
C[C@@H]1CN([C@H](C)CO)C(=O)c2cc(NS(=O)(=O)c3cn(C)cn3)ccc2O[C@H]1CN(C)Cc1ccc(C(=O)O)cc1	inactive: 0.983
C[C@H](CO)N1C[C@H](C)[C@@H](CN(C)C(=O)Nc2ccc3c(c2)OCO3)Oc2ccc(NC(=O)Cn3cnnn3)cc2CC1=O	inactive: 0.983
CN1CCC(N(C)C(=O)COc2ccc(S(=O)(=O)N3CCOCC3)cc2)CC1	inactive: 0.988
O=C(C[n+]1ccc(/C=N/O)cc1)N1CCCCC1	inactive: 0.934
C=CCN1C(=O)[C@@]2(O[C@@H](CCn3cc([C@H](O)c4ccccc4)nn3)[C@H]([Si](C)(C)c3ccc(OC)cc3)[C@H]2C)c2cc(N3C(=O)c4cccc5cccc3c45)ccc21	inactive: 1.02
Cc1ccc(S(=O)(=O)Nc2ccc3c(c2)C(=O)N([C@@H](C)CO)C[C@@H](C)[C@@H](CN(C)C(=O)Nc2cccc4ccccc24)O3)cc1	inactive: 1
Cc1ccc(S(=O)(=O)Nc2ccc3c(c2)C(=O)N([C@H](C)CO)C[C@H](C)[C@H](CN(C)CC2CCCCC2)OCCCC[C@H](C)O3)cc1	inactive: 0.999
CC(C)NC(=O)N(C)C[C@H]1Oc2ccc(NC(=O)CCC(F)(F)F)cc2C(=O)N([C@H](C)CO)C[C@@H]1C	inactive: 1.01
C[C@@H]1CN([C@H](C)CO)C(=O)c2cc(NC(=O)CCN3CCOCC3)ccc2O[C@H]1CN(C)S(=O)(=O)c1ccc(F)cc1	inactive: 1.03
O=C(C[C@@H]1CC[C@@H](NC(=O)CN2CCOCC2)[C@@H](CO)O1)NCCc1ccncc1	inactive: 0.992
C[C@@H]1CN([C@@H](C)CO)C(=O)Cc2cc(NC(=O)NC3CCCCC3)ccc2O[C@H]1CN(C)Cc1ccc(Oc2ccccc2)cc1	inactive: 1.02
CC(C)NC(=O)N(C)C[C@H]1Oc2ccc(NC(=O)C3CCCCC3)cc2CC(=O)N([C@H](C)CO)C[C@@H]1C	inactive: 0.996
C[C@@H]1CCCCO[C@@H](CN(C)S(=O)(=O)c2cccs2)[C@@H](C)CN([C@H](C)CO)C(=O)c2cc(NC(=O)c3ccccc3)ccc2O1	inactive: 1.01
C[C@@H]1CN([C@H](C)CO)S(=O)(=O)c2ccc(C#CC3CC3)cc2O[C@@H]1CN(C)C(=O)c1cccc(F)c1	inactive: 1.02
C[C@@H]1CCCCO[C@H](CN(C)CC2CC2)[C@H](C)CN([C@@H](C)CO)C(=O)c2cc(NC(=O)c3ccccc3)ccc2O1	inactive: 0.935
CC(=N)NCCCC[C@@H](N)C(=O)O	inactive: 0.98
O=C(C[C@H]1C[C@H]2c3cc(NC(=O)c4ccc5c(c4)OCO5)ccc3O[C@H]2[C@@H](CO)O1)NCc1cccnc1	inactive: 1.02
C[C@@H]1CN([C@@H](C)CO)C(=O)c2cc(NC(=O)CCC(F)(F)F)ccc2O[C@H]1CN(C)Cc1ccc(C(=O)Nc2ccccc2N)cc1	inactive: 0.976
CC(=O)OC[C@@H]1O[C@H](O[C@@H]2CC[C@]34C[C@]35CC[C@]3(C)[C@@H]([C@@H](C)[C@H]6C[C@@H](O)C(C)(C)O6)CC[C@@]3(C)[C@H]5CC[C@H]4[C@H]2C)[C@@H](O)[C@H](O)[C@@H]1O[C@H]1O[C@@H](CO)[C@@H](O[C@H]2O[C@@H](CO)[C@@H](O)[C@@H](O)[C@@H]2O)[C@@H](O[C@H]2O[C@@H](C)[C@@H](O)[C@@H](O)[C@@H]2O)[C@@H]1O	inactive: 0.993
